Reference: PMC7819943, “Rice protein-binding microarrays: a tool to detect cis-acting elements near promoter regions in rice”
This is one part of the list.

Each sequence was assayed against T1, OsWOX13 (Oryza sativa, UniProt Q5QMM3 1-267) (assay: protein-binding microarray (RPBM); PBS, 2% BSA, 51.3 ng/ul salmon testes DNA, 50 uM zinc acetate, 200 nM TF, 25 C, 1 h; high values mean tight binding). Conditions: protein: recombinant; tags: N-terminal polyhistidine and DsRed monomer fusion (pET32a); label: CyDye5-dUTP incorporated in the synthesized complementary strand; 3' TTTTT single-stranded linker to array surface; dsDNA, one strand shown.
T1 sequence: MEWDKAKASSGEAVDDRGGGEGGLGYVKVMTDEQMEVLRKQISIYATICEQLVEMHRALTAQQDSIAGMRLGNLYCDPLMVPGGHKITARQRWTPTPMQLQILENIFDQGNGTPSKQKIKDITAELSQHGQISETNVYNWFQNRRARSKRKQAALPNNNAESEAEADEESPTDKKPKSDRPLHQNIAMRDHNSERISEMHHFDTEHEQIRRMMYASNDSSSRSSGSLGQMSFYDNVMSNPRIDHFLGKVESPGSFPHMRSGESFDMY
Method in brief: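 Polyhistidine-tagged DsRed fusions of transcription factors, joined at the N-terminus, were expressed in E. coli BL21-CodonPlus and isolated on Ni–NTA. They were incubated at 200 nM for 1 h at 25 °C on a custom Agilent array, double-stranded and BSA-blocked, in PBS with 2% BSA, salmon testes DNA and 50 µM zinc acetate. The binding signal is per-feature fluorescence intensity (arbitrary units) read on an Axon 4000B scanner after washing.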
In the case of “TGCCGTTTTGTAATTGAATTGCTTGTTAATTCATGTTCAACGGAGTCACCTAGTGCAG”, the binding signal is reported as 7350 fluorescence intensity (a.u.). With “TTCCCGCGTTTAATTAGTACGTATCACCTCTCATGCATTTCGGAGTCACCTAGTGCAG” the binding signal was 8190 fluorescence intensity (a.u.). With “TATGATTGTGGCGCCATTGACGTTTACGATATCCTGTGAACGGAGTCACCTAGTGCAG” the binding signal was 23700 fluorescence intensity (a.u.). For “TCCTGAAGATGACTGGAACATGACTGTGGATCTGCATAAACGGAGTCACCTAGTGCAG”, the binding signal was 6160 fluorescence intensity (a.u.). With “AATTAATTAATTAACCATATGTACTTCACACATATATTAACGGAGTCACCTAGTGCAG” the binding signal was 28400 fluorescence intensity (a.u.). In the case of “AATTGGCAATAAATTAGATGTCACTAGAGTAAATTAGTAGCGGAGTCACCTAGTGCAG”, the binding signal is reported as 8860 fluorescence intensity (a.u.). “AAGGAGCTGATTTGCACCGATTTATGAAGTACCTAGTTTTCGGAGTCACCTAGTGCAG” was tested, and the binding signal was 3980 fluorescence intensity (a.u.). In the case of “TCAGTACCTCTAATTGGCCCGTTGGCTTTTGTTTCAGAAACGGAGTCACCTAGTGCAG”, the binding signal is reported as 3730 fluorescence intensity (a.u.). “TTGTCAAATTATGGTACAATTAGGCTTAAAAGATTCATATCGGAGTCACCTAGTGCAG” was tested, and the binding signal was 3790 fluorescence intensity (a.u.). In the case of “ACTTGTATTTACGGCTAATTATATTTTCAGTGATAGGCGACGGAGTCACCTAGTGCAG”, the binding signal is reported as 14100 fluorescence intensity (a.u.). In the case of “CTTGATTTCGTTGTTTCGTTTTGCGTGCAATGGGGAAGTGCGGAGTCACCTAGTGCAG”, the binding signal is reported as 11300 fluorescence intensity (a.u.). In the case of “ACAAGTAATCAAAGACGGCATGACACGTAGCTTTCTAGACCGGAGTCACCTAGTGCAG”, the binding signal is reported as 3980 fluorescence intensity (a.u.). In the case of “AGACGATCTCATGACATTAATTTGACCATCATTAGGCCTACGGAGTCACCTAGTGCAG”, the binding signal is reported as 3840 fluorescence intensity (a.u.). For “GGCAATCTTCTGATTACCGGCGGCTGCAGTGTTTTCTGATCGGAGTCACCTAGTGCAG”, the binding signal was 3870 fluorescence intensity (a.u.). In the case of “TCAATTATAAATTTAATGAAACTATGCAAATATTACTACTCGGAGTCACCTAGTGCAG”, the binding signal is reported as 14000 fluorescence intensity (a.u.). With “CCATCTGCTGATAGATTTTCTATTGCCAAATCTTACACCTCGGAGTCACCTAGTGCAG” the binding signal was 5710 fluorescence intensity (a.u.). “TCCTGTATTATTTTACCGTCTGATTTACTGCATGTGAGCTCGGAGTCACCTAGTGCAG” was tested, and the binding signal was 4270 fluorescence intensity (a.u.). For “TGGATTGAGATATTTATTTATGATGATCACATCTGCACCTCGGAGTCACCTAGTGCAG”, the binding signal was 9980 fluorescence intensity (a.u.). In the case of “GAGTATTATAATTATCTTTTGTAAATCTTAAATTTTGCTACGGAGTCACCTAGTGCAG”, the binding signal is reported as 8850 fluorescence intensity (a.u.). In the case of “GTGAGTAATTAATACCAATGCTTCTTCTTTTCTCCCTTACCGGAGTCACCTAGTGCAG”, the binding signal is reported as 6680 fluorescence intensity (a.u.). For “ATCCACTGTTTGTGAATTGTCAATTTGTCATGCGTTGTACCGGAGTCACCTAGTGCAG”, the binding signal was 4140 fluorescence intensity (a.u.). For “TCCATGATTAGCCATAAGTGTTACGTAACCCACATGTGCTCGGAGTCACCTAGTGCAG”, the binding signal was 32500 fluorescence intensity (a.u.). With “TGTGATTGGAGGCTGGCAGAGAGGCGAGATCGGTCGGCGGCGGAGTCACCTAGTGCAG” the binding signal was 45000 fluorescence intensity (a.u.).
